# PubChem BioAssay AID1460 (National Center for Advancing Translational Sciences (NCATS), 2008)
# Screen size: about 270,000 compounds; about 5,800 (2.1%) were called active. The inconclusive results got no clear call from the source; some entries with a clear call stand among them for comparison. Calls come from the whole dose curve; as a rule, active = well fitted inhibition curve with a large enough effect; inconclusive = small, poorly fitted or top-dose-only effect; inactive = flat fitted curve, though single readings scatter. Where the call is inconclusive, the potency comes from a doubtful curve fit.
# Molecular target: Microtubule-associated protein tau (Homo sapiens) (UniProt P10636)
# Assay: qHTS for Inhibitors of Tau Fibril Formation, Thioflavin T Binding; note: nearly all actives have a fitted effect of over 55% in size
# Settings: recombinant tau K18 P301L, heparin-induced fibrillization, ThT fluorescence; series mostly up to 57.4 µM; activity, negative = inhibition: at the top concentration
# How it was run: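 Using a mix of unlabeled (15 uM) and Alexa 594-labeled (0.24 uM) tau K18 P301L, heparin-triggered fibrillization over 6 hr at 37 C was scored by ThT fluorescence.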
# % is set by controls: 0 for no effect and ±100 for the full control effect; potency is the fitted concentration of half-maximal effect; tags give direction and shape of the fitted curve.
# Sequence of UniProt P10636 (P10636 whole entry, looked up): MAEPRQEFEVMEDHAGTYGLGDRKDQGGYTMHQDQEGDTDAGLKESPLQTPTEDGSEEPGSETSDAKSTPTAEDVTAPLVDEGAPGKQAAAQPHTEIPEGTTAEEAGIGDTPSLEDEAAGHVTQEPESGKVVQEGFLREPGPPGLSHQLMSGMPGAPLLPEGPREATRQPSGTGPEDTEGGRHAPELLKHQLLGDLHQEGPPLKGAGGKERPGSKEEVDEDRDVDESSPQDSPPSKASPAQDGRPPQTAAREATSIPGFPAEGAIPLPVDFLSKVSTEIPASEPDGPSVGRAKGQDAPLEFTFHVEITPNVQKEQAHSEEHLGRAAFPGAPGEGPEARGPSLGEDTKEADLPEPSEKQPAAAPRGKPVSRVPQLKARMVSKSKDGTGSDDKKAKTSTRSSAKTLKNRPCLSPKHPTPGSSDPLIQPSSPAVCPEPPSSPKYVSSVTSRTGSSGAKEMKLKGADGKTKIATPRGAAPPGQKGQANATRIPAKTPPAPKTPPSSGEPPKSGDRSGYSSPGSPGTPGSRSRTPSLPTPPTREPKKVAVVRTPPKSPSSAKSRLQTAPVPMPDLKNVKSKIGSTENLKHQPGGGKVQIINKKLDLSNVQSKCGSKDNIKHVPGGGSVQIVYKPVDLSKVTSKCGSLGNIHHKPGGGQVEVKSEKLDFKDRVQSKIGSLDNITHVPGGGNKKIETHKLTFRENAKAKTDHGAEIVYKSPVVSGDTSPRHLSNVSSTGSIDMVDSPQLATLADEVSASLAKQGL
Compound,"activity, negative = inhibition",Potency
Cc1cccc(NC(=O)N2CCC(CN3CCCCCC3)CC2)c1C,inactive: -13.9%,–
CC(C)(C)NC(=S)NC(=O)C12CCC3CC(CC(C3)C1)C2,inactive: -1.13%,–
Cc1cccc(OCCCn2c(CCNC(=O)C3CCCCC3)nc3ccccc32)c1,–,"inconclusive: 22.4 µM [inhibitor, partial curve]"
CCOC(=O)c1cnc2c(C)cccc2c1Nc1ccc(OC(C)C)cc1,–,"inconclusive: 14.1 µM [inhibitor, partial curve]"
CCOc1cc(/C=C2\N=C(SCC)SC2=O)cc([N+](=O)[O-])c1OC(C)=O,–,active: 3.98 µM
CCSc1nnc(NC(=O)/C=C/c2ccco2)s1,inactive: -13.3%,–
COc1cccc(-c2nc(SCC(=O)Nc3ccc4c(c3)OCCO4)c(-c3ccc(C)cc3)[nH]2)c1,–,"inconclusive: 0.891 µM [inhibitor, single point]"
Cc1ccc(O)c(NC(=S)NC(=O)COc2ccc(Br)cc2)c1,–,"inconclusive: 5.62 µM [inhibitor, partial curve]"
O=c1oc(Nc2ccccc2F)nc2ccccc12,–,"inconclusive: 14.1 µM [inhibitor, partial curve]"
CCC(SC1=N/C(=C/c2ccccc2)C(=O)N1c1ccccc1)C(=O)Nc1cc(C)on1 (stereo unspecified),inactive: -2.39%,–
COc1ccc(C(=O)NN2C(=O)C3C(c4ccccc4)C=CC(c4ccccc4)C3C2=O)cc1 (stereo unspecified),inactive: -6.43%,–
COc1ccc(N2CCC(CNC(=O)Nc3ccc(OC)cc3OC)C2)cc1 (stereo unspecified),–,active: 14.1 µM
C/C=C/c1cc(CN2CCN(c3ccccc3)CC2)c(O)c(OC)c1,–,"inconclusive: 8.91 µM [inhibitor, partial curve]"
Cn1cc(/C=N\NC(=O)c2cccs2)c2ccccc21,–,"inconclusive: 22.4 µM [inhibitor, partial curve]"
NC(=O)CSc1nc2ccc(NC(=O)COc3ccccc3Cl)cc2s1,–,"inconclusive: 2.82 µM [inhibitor, full curve, poor fit]"
COC(=O)c1ccc(C(NC(=O)OCc2ccccc2)/C(I)=C/[C@@H](C)C(=O)NCc2ccncc2)cc1 (stereo partly specified),–,"inconclusive: 20 µM [inhibitor, single point]"
CC(/C=C1\SC(=S)N(NC(=O)c2ccc(O)cc2)C1=O)=C\c1ccccc1,inactive: 4.76%,–
Cc1ccc(-c2cc(-c3ccccc3)no2)c(O)c1,inactive: -1.1%,–
CCCN1C(=O)/C(=C/c2cc(C)n(C)c2C)SC1=Nc1ccc(OCC)cc1,–,"inconclusive: 15.8 µM [inhibitor, single point]"
Cc1ccnc2nc(C(=O)Nc3cc(Cl)ccc3N3CCOCC3)nn12,–,"inconclusive: 44.7 µM [inhibitor, single point]"
c1ccc(CN2CCN(CCOCCOc3cccc4ccccc34)CC2)cc1,inactive: -10.5%,–
CC(=O)C1=C(S(=O)(=O)c2ccc(C)cc2)CS(=O)(=O)C1,–,active: 25.1 µM
CCCN1C(=O)C(Cc2nc3ccccc3c(=O)n2-c2ccc(OC)cc2)c2cc(C)ccc21 (stereo unspecified),inactive: -16.3%,–
Cc1cc(NCc2ccccn2)ccc1Br,–,"inconclusive: 15.8 µM [inhibitor, partial curve, poor fit]"
O=C(/C=C/Nc1ccccc1C(=O)O)c1cccs1,–,"inconclusive: 14.1 µM [inhibitor, partial curve]"
CCOC(=O)c1cc2ccc(OC)c(OC)c2c(=O)s1,–,"inconclusive: 17.8 µM [inhibitor, partial curve]"

Compound,"activity, negative = inhibition",Potency
CCN(CC)c1ncnc2ccc(Br)cc12,inactive: -12.2%,–
CC(C)c1ccc(N2CCN(C(=O)c3ccccc3NC(=O)/C=C(\C(=O)O)c3ccccc3)CC2)cc1,–,"inconclusive: 25.1 µM [inhibitor, single point]"
O=C(Nc1ccc(N2CCOCC2)cc1)c1ccc2c(c1)OCO2,–,"inconclusive: 14.1 µM [inhibitor, partial curve]"
O=C(NCCc1ccc(Cl)cc1)c1ccc(CSCc2cccc(Cl)c2)o1,inactive: -18.4%,–
Cc1cc(-c2ccccc2)nc(N2CCN(c3ccccn3)CC2)n1,–,"inconclusive: 15.8 µM [inhibitor, partial curve, poor fit]"
N#CCCS(=O)(=O)c1ccccc1,inactive: 0.518%,–
COc1cc(/C=C(\C#N)c2nc3ccccc3[nH]2)cc(Br)c1OCc1ccccc1,–,"inconclusive: 7.08 µM [inhibitor, partial curve]"
Cc1cc(Cl)ccc1NC(=O)CCCn1nc(C)c2c(C)n(-c3ccccc3)nc2c1=O,–,"inconclusive: 44.7 µM [activator, single point]"
O=C(c1ccccc1)c1cc2c(cc1[N+](=O)[O-])OCCO2,inactive: -10.6%,–
Cc1cc(NC(=O)c2cccn2-c2nnc(N3CCCCC3)s2)ccc1Br,inactive: -5.78%,–
S=c1[nH]c2ccc3ccccc3c2[nH]1,inactive: -2.95%,–
N#CCSc1nc2ccccc2c2nc3ccccc3n12,–,"inconclusive: 12.6 µM [inhibitor, partial curve]"
c1csc(-c2csc3ncnc(NCCCN4CCOCC4)c23)c1,inactive: -6.17%,–
CC(C)C(=O)OCc1cc(=O)n2nc(C3CC3)sc2n1,inactive: -7.6%,–
CCCCNC(=O)c1ccc2c(c1)NC(=O)C(CS(=O)(=O)Cc1ccc(C)cc1)N2 (stereo unspecified),inactive: -12.3%,–
Cc1ccc(C(=O)Nc2ccc3oc(-c4ccccc4C)nc3c2)cc1,–,"inconclusive: 0.501 µM [inhibitor, full curve, poor fit]"
CCCC(=O)c1ccc(N2CCN(C(=O)c3ccccc3)CC2)c(F)c1,–,"inconclusive: 28.2 µM [inhibitor, partial curve]"
Cc1[nH]c2ccccc2c1-c1csc(NC(=O)CSCC(=O)O)n1,–,"inconclusive: 31.6 µM [inhibitor, single point]"
O=C(OCCN1C(=O)c2cccc3c(N4CCOCC4)ccc(c23)C1=O)c1cccc(Cl)c1,–,"inconclusive: 39.8 µM [activator, single point]"
CCCN(C(=O)Nc1cn(CC(C)C)c(=O)c2ccccc12)c1ccc(F)cc1,inactive: 0.256%,–
CCOC(=O)Cc1csc(NC(=O)NC2(C(F)(F)F)Oc3ccccc3O2)n1,–,"inconclusive: 20 µM [inhibitor, partial curve]"
COc1cc(N2CCOCC2)ncn1,inactive: 0.294%,–
O=C(NC1CCCC1)c1nc2c(nnn2Cc2cccc(Cl)c2)c(=O)[nH]1,inactive: -12.7%,–
CCN(CC)S(=O)(=O)c1ccc(N2CCCC2)c(NC(=O)Cc2ccc(OC)cc2)c1,inactive: -6.99%,–
Cc1ccc2oc(=O)n(CCNC(=O)Nc3ccc(Cl)cc3)c2c1,inactive: 0.0951%,–
COc1ccc(C(Nc2ccccn2)c2oc(CO)cc(=O)c2O)cc1 (stereo unspecified),–,"inconclusive: 28.2 µM [inhibitor, single point]"

Compound,"activity, negative = inhibition",Potency
NS(=O)(=O)c1ccc(N/N=C/c2ccccc2Br)cc1,–,"inconclusive: 11.2 µM [inhibitor, partial curve]"
Cc1c(Cl)cccc1NC(=O)Cn1c(=O)n(Cc2nc(-c3ccccc3)no2)c(=O)c2cc3c(cc21)OCO3,–,"inconclusive: 1 µM [activator, single point]"
C=CCSc1nccc(-c2nn(-c3ccc(C)cc3)ccc2=O)n1,inactive: -11.8%,–
Fc1ccccc1CNCCC(Cc1ccccc1)c1ccc2c(c1)OCO2 (stereo unspecified),inactive: -15.6%,–
O=C(Nc1ccc2[nH]c(=O)[nH]c2c1)c1ccc(Cl)c(Cl)c1,–,"inconclusive: 0.562 µM [inhibitor, full curve, poor fit]"
CCc1nn(CC(=O)NCCCc2ccccc2)c(=O)c2cc3ccccc3n12,inactive: 4.59%,–
CCN1C=C(Cc2cccs2)C2=C(C1)C(c1cccs1)C(C#N)=C(N)O2 (stereo unspecified),–,active: 22.4 µM
COc1ccc(-n2c(Cc3cccn3C)nnc2SCC(=O)Nc2ccc(C(C)=O)cc2)cc1,inactive: -4.48%,–
COc1ccccc1NS(=O)(=O)c1cc(NC(=O)C(C)C)ccc1N1CCCCC1,inactive: -6.2%,–
CSc1ccc(CCNC(=O)c2cc3cc4cc(C)ccc4nc3s2)cc1,–,"inconclusive: 0.224 µM [inhibitor, partial curve]"
COc1cccc(C(=O)NC(=S)Nc2nnn(C)n2)c1,inactive: 0.654%,–
COc1cc(C2Nc3ccccc3-c3nnc(SCc4ccc(C)cc4)nc3O2)cc(OC)c1O (stereo unspecified),–,"inconclusive: 12.6 µM [inhibitor, partial curve, poor fit]"
Cc1ccc(CNC(=O)C2CCCCC2C(=O)O)cc1 (stereo unspecified),inactive: 1.31%,–
CCNC(=S)N/N=C1\C(=O)c2cccc3cccc1c23,–,"inconclusive: 3.98 µM [inhibitor, full curve]"
O=C1COc2ccc(C(=O)CCl)cc2N1,–,"inconclusive: 28.2 µM [inhibitor, partial curve, poor fit]"
CCOC(=O)C1=C(CN2CCc3ccccc32)NC(=O)NC1c1ccc(Cl)cc1 (stereo unspecified),–,"inconclusive: 22.4 µM [inhibitor, single point]"
O=c1c2c(nc3cc(-c4ccccc4)[nH]n13)CCC2,–,"inconclusive: 15.8 µM [inhibitor, partial curve]"
Cc1ccc(N(CC(=O)NC(C)(C)C)C(=O)CNC(=O)c2cccs2)cc1C,inactive: 5.14%,–
CCCC(=O)Nc1ccc(N2CCN(C(=O)c3cccs3)CC2)cc1,–,"inconclusive: 17.8 µM [inhibitor, partial curve]"
O=[N+]([O-])c1ccc(COc2ccccc2/C=N/O)cc1,–,"inconclusive: 7.94 µM [inhibitor, partial curve]"
CC(C)(C)NC(=S)NCc1ccco1,–,"inconclusive: 28.2 µM [inhibitor, partial curve]"
COc1cc(N)c(Cc2nccc3cc(OC)c(OC)cc23)cc1OC,–,"inconclusive: 25.1 µM [inhibitor, partial curve]"
O=C(COc1ccccc1-c1ccccc1)N/N=C/c1ccc2ccccc2c1,inactive: 1.29%,–
O=C(COc1cccc2ccccc12)N1CCN(c2ccccn2)CC1,–,"inconclusive: 39.8 µM [inhibitor, partial curve]"
